± gives the standard deviation. This is a selection; strong and weak results do not stand in their true shares.
Tested on: MIWI (PIWIL1) piRISC loaded with piRNA #1 (30 nt)
Assay: pre-steady-state target cleavage rate (min^-1); MIWI and MILI are mouse PIWI proteins and EfPiwi is from a freshwater sponge; tags in brackets are library labels; higher = faster piRNA-guided slicing of the target
Settings: guide: piRNA #1 5'p-UGAGGUAGUAGGUUGUAUAGUAUCCAGAGG; auxiliary factor: 500 nM mouse GTSF1
Method in brief: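 Cleave-'n-Seq measured uncleaved targets by sequencing after a transcribed, DNA-blocked target RNA library […] was mixed with 1 nM active affinity-purified piRISC holding one synthetic guide, with or without 500 nM GTSF1 partner protein, at 33 °C in HEPES–potassium acetate buffer for 0–8 or 0–960 min. Counts were normalised to depth and to weakly complementary targets, three trials were pooled, and k3 was capped at 0.0001 min^-1. A burst-and-steady-state fit gave the pre-steady-state cleavage rate.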
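Further: 1 nM active piRISC with 0.1 nM target library at 33 °C single turnover.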

Sequence | pre-steady-state target cleavage rate
GGAGACCAUACUAUACAAGGUACUACCUCA | 0.133 ± 0.013
CCUCAGGAUACUUUACAACCUACUACCUCA | 2.1 ± 0.13
CCUCUCGAUACUAUACAACCUACUAGCUCA | 1.46 ± 0.087
GCUCUCGAUACUAUACAACCUACUACCUCA | 1.86 ± 0.11
GGAGACCUAACUAUAGAUCCUACUACCUCA | 0.165 ± 0.025
GGUCUGGAUACUUUACAACCUUCUACCUCA | 0.529 ± 0.04
GCUCUGGAAACUAUACAACCUACUACCUCA | 1.92 ± 0.11
CCUCUGGAUACUAUACAACCUUCUUCCUCA | 0.333 ± 0.031
GGAGUCGAUACAAUACAACCUACUACCUCA | 1.44 ± 0.11
GGAGACCUAUGAUUACAACCUACUUGGUCA | < 0.0001
GGAGACCUAUCUAUACAGCCUACUACCUCA | 0.14 ± 0.011
GGAGACCUUACUAUAGCAACCUACUACCUCA | 0.109 ± 0.016
GGUCUGGAUUCUAUACAACCUACUACGUCA | 0.667 ± 0.052
CCUCUGGAAACUAUAGAACCUACUACCUCA | 0.89 ± 0.071
GGAGAGGAUACUAUAGAACCUAGUACCUCA | 0.00378 ± 0.0019
GGAGACCUAUCUAUACAACCUACUACCUUCA | 0.689 ± 0.067
GGAGACCAUACUAUACAUCCAACUACCUCA | 0.0679 ± 0.0095
GGAGACCUAUGAUAACAACGAUCUACCUCA | < 0.0001
GGAGUGGAUACUAUACAUCCUACUACCUGA | 0.148 ± 0.028
GGAGACCAUACUAAACAACCUACUAGCUCA | 0.507 ± 0.059

Sequence | pre-steady-state target cleavage rate
GGAGACCUAACAAUACAACCUACUACCUGA | 0.00542 ± 0.0049
GGAGACCAUACUAUACAACCAACAACCUCA | 0.0223 ± 0.0076
CCUCUGGAUACUAUUCAACCUACUACCACA | 2.19 ± 0.18
CCUCUGGUUACUAUACAACCUACUUCCUCA | 0.536 ± 0.035
CCUCUGCAUAGUAUACAACCUACUACCUCA | 0.91 ± 0.036
GGUCUGGAUACUUUACAACCAACUACCUCA | 0.0818 ± 0.0078
GGAGACGUACUAUACAACCUACUACCUCA | 1.67 ± 0.12
GGAGACCUAUCUUUACAACCUACAACCUCA | 0.0147 ± 0.005
GGAGUGGAUACUUUACAACCUUCUACCUCA | 0.469 ± 0.027
GGAGACGAUACUAUUCAAGCUACUACCUCA | 0.859 ± 0.048
GGAGACCUUUCUAUACAACCUACAACCUCA | 0.286 ± 0.032
GGAGACCUAUGUAUUCAACCUACUACGUCA | 0.00199 ± 0.002
GGAGACCUUACUAUACAACCUACUAACUCA | 1.01 ± 0.06
GGACUGGAUACUAUACAACCUACUAACCUCA | 0.843 ± 0.068
GGAGUGGAUGACUAUACAACCUACUACCUCA | 1.3 ± 0.13
GGUCUGCAUACUAAACAACCUACUACCUCA | 1.56 ± 0.12
GGAGACCUAUGAUAUGUUCCUAGUACGUCA | < 0.0001
GGAGACGAUACUAUACAACCUACUAUCCUCA | 0.963 ± 0.053
GGAGACCUAUGAUAUCAACCUACUUCCACA | < 0.0001
GGUCUGGAUACUUUUCAACCUACUACCUCA | 1.37 ± 0.11

Source: the supplement of paper PMC10338343
